In all, about 150,000 compounds went through this assay and about 540 (0.36%) showed an effect of 50% or more. This is one part of the list.
What follows are molecules tested on Plasmodium falciparum (assay: Primary screen in NF54 nanoGlo assay, in single point, at 2uM, 72h; a lower Z score goes with more inhibition). Settings: timepoint 72 hour.
Assay type: functional, Erythrocyte

SMILES | % Inhibition | Z score
Cc1noc(C)c1N(C)C(=O)c1csc(Cc2cccc(F)c2)n1 | 6% | -0.76
O=C(NCCN1CCCC1)[C@@H]1CCCCc2nnc(-c3ccccc3)n21 | -11% | 1.69
O=C(OC1CCCC1)c1ccc(NCc2nnc(C3CC3)o2)cc1 | -17% | 2.3
O=C(C1Cc2ccccc2CO1)N1CCC(Oc2cnccn2)C1 (configuration not stated) | -21% | 2.35
Cc1ccc2c(c1)cc(C(=O)N1[C@H]3CCNC[C@@H]1CC3)n2C | 6% | -0.8
COc1ccccc1NC(=O)[C@H]1CCCN(S(=O)(=O)Cc2cccc(Cl)c2)C1 | 9% | -1.17
c1ccc2[nH]c(NC3CCCC3)nc2c1 | -3% | 0.23
COc1ccc(NC(=O)c2ccsc2)cn1 | -10% | 1.62
Cn1nc2n(c1=O)C(=O)N(c1cccc(F)c1)C2 | -6% | 0.76
CN(Cc1cc[nH]n1)c1cc(N2CCOCC2)ncn1 | 13% | -1.85
Cc1ncn(C)c1C(=O)N(C)Cc1cnn(C(C)C)c1 | 1% | -0.09
O=C(NC1CCCCC1)c1cncc(-c2ccccc2F)c1 | -18% | 2.05
O=C1COc2ccc(S(=O)(=O)N3CCN(C(=O)Cc4ccc(F)cc4)CC3)cc2N1 | 2% | -0.24
CCn1c(=O)c2sccc2n(CC(=O)N(C)C2CCCCC2)c1=O | 7% | -0.96
CN(CC(=O)NC(c1ccccc1)c1ccccc1)S(=O)(=O)c1cccc(Cl)c1 | 3% | -0.52
CN(C(=O)[C@@H]1CCN(c2ccccc2)C1=O)C1CCOCC1 | 1% | -0.1
CC1CC(Nc2ccc(S(C)(=O)=O)cc2)C(=O)N1c1ccccc1 (configuration not stated) | -3% | 0.37
CCCN1CCC(NC(=O)OCC)CC1 | -16% | 1.49
C#CCN1CCC(C(=O)N(CCC#N)CC(C)(C)C)CC1 | -8% | 1.61

SMILES | % Inhibition | Z score
Cc1c(C(=O)NCCS(=O)(=O)N(C)C)nnn1CC1CCCC1 | -10% | 1.9
COc1ccc(OC)c(-c2cc(C(=O)O)c(N)c3cccnc23)c1 | -6% | 1.04
CC(C)c1ccc(C2CC2C(=O)NS(=O)(=O)c2cccnc2)cc1 (configuration not stated) | -6% | 0.97
CN(CCN(C)C1CCCC1)c1nccc(N)n1 | -9% | 1.1
COc1ccc(-c2c(N)nnc3c(-c4ccccc4)cnn23)cc1 | -15% | 2.82
CCCn1nnnc1CNc1ccc(C)c(NC(C)=O)c1C | -10% | 1.43
O=C(CCc1ccc2c(c1)OCO2)N1CCC[C@H]1c1ccc[nH]1 | -10% | 1.29
Cc1cc(C(F)(F)F)n(C[C@@H](C)CNS(=O)(=O)N(C)C)n1 | -2% | 0.16
Cc1nc(C(=O)N(C)CCCOc2ccc(F)cc2)c2n1CCCC2 | -9% | 0.81
O=S(=O)(c1ccc(Cl)cc1)n1nc(-c2ccccc2)nc1NCc1ccco1 | -5% | 0.62
CC(C)(C)C(=O)NC1CC2CC1C1CC21 (configuration not stated) | 7% | -0.99
C[C@]1(C(N)=O)CCN(c2nnc(-c3ccc(C#N)cc3)n2Cc2ccco2)C1 | -3% | 0.51
O=C1CCc2cc(OS(=O)(=O)c3ccccc3)ccc2N1 | 29% | -3.87
Nc1c(C(=O)NC2CCS(=O)(=O)CC2)ccnc1-c1ccccc1 | -11% | 1.73
COc1cc(C)nc(NC(=O)[C@H]2CCCO2)n1 | -2% | 0.33
Cc1noc(C)c1CN1C(=O)N(c2ccc(Cl)cc2)c2ncccc2S1(=O)=O | -4% | 0.42
Cc1nsc(C(=O)NCCCn2ncccc2=O)n1 | -7% | 1.2
O=C(NCCNc1cccc(Br)c1)Nc1cccnn1 | -15% | 1.48
COc1ccc(C(=O)N[C@@H](Cn2ccnn2)C(C)C)cn1 | 3% | -0.37

SMILES | % Inhibition | Z score
CC1CC(NC(=O)N[C@H]2CCCOC2)CC(c2ccccc2)C1 (some centres not stated) | -10% | 1.34
CNc1ncccc1[C@@H]1C[C@H](NC(C)=O)C[C@H](Cc2ccccc2)O1 | 6% | -0.74
CN1CCC(CCNC(=O)CCCOc2ccccc2)CC1 | -3% | 0.48
CCc1ccc(CS(=O)(=O)NC(=O)[C@H]2CCCC(F)(F)C2)cc1 | -19% | 1.91
CCC(CC)CN(CC(=O)OC)S(=O)(=O)c1ccc(S(C)(=O)=O)cc1 | -13% | 1.86
CCn1cc(CC(=O)N2CCc3c(cccc3C(N)=O)C2)c2ccccc21 | -1% | 0.2
N#CC1(NC(=O)[C@@H]2CCN(c3ccc(F)c(F)c3)C2=O)CCC1 | -4% | 0.39
CCn1cc(S(=O)(=O)N2CCC[C@H]2c2n[nH]c(C)n2)cn1 | 10% | -1.64
COc1ccccc1N1CCN(C(=O)c2snc3c(=O)n(C)c(=O)[nH]c23)CC1 | -1% | 0.15
COc1ccc2c(c1)CN(C(=O)c1oc3c(Cl)cccc3c1C)CC2 | -5% | 0.93
CCN(CC)C(=O)[C@H]1CC(=O)OC1(C)C | -15% | 1.93
CN(CCC#N)c1ncc(C#N)cc1Cl | 6% | -1.14
Cn1cc(C2CCCN2CC(O)c2ccccc2)cn1 (configuration not stated) | -8% | 1.11
Cc1ccc(Nc2nc(N)[nH]c(=O)n2)cc1 | -15% | 2.07
O=C(O)Cc1ccc(CNC(=O)CC2=CCCCC2)cc1 | 23% | -2.64
COc1ccc(CC(=O)Nc2ccc3c(c2)C(N2CCC(C)CC2)=Nc2ccccc2O3)cc1 | 5% | -0.73
CCCCCNC(=O)c1snc(C(=O)N2CCCC2)c1N | -5% | 0.56
O=S(=O)(Oc1cccc(-c2nnco2)c1)c1ccc2c(c1)OCCCO2 | -4% | 0.67

From ChEMBL document CHEMBL4888484, “Replenishing the malaria drug discovery pipeline: Screening and hit evaluation of the MMV Hit Generation Library 1 (HGL1) against asexual blood stage Plasmodium falciparum ,using a nano luciferase reporter read-out” (2022)
